Test results as given in PubChem BioAssay (NCI).
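Values below derive from 48-hour exposures of cells grown in 96-well plates, with endpoints linearly interpolated between the two concentrations bracketing the appropriate inhibition level. GI50 is the concentration that inhibits growth by half. TGI: total growth inhibition.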 The source made the active and inactive calls. Rule as the data show it: active = GI50 below about 0.43 µM; inactive = the rest.

system: NCI-H322M lung; assay: DTP human tumour cell line panel, 48 h

Point of comparison: `Cc1cc(O)c(C=O)c(C)c1CCC1(C)C=Cc2cc(O)ccc2O1` (centres undefined), TGI 84.1 µM. Against it:
- CCOP(=O)(/C=C/n1ccc(N)nc1=O)OCC — higher, > 100 µM
- CC1=NN(C(=O)CC(=O)Nc2ccccc2)C(=O)C1N=Nc1ccc(C(=O)O)cc1 (centres undefined) — higher, > 100 µM
- O=C(Nc1ccc(Cl)cc1)c1cc2c(cc1Cl)Sc1nccn1S2(=O)=O — higher, > 100 µM
- CCCCCCCC(=O)SCC/C=C/[C@@H]1CC(=O)NCc2cccc(n2)CN(Cc2ccc3ccccc3c2)CC(=O)N[C@@H](C(C)C)C(=O)O1 — higher, > 100 µM
- [Cl-].[Nd+3].[O-]/N=C(\c1ccccc1)c1ccccn1.[O-]/N=C(\c1ccccc1)c1ccccn1.[O-]/N=C(\c1ccccc1)c1ccccn1 — higher, > 100 µM
- C[n+]1c2ccccc2c(Nc2ccc(N3CCCCC3)cc2)c2[nH]c3ccccc3c21 — 42-fold lower, 2.02 µM
- Cc1nc(N)nn1C1OCC(O)C(O)C1O (centres undefined) — higher, > 100 µM
- COc1nc(Cl)nc(Cl)c1Cl (tested in a mixture with another compound) — 3-fold lower, 28 µM
- CCCCOC(=O)C(=O)C(CC(CC)C(=O)c1ccccc1)C(=O)C=C(C)C (centres undefined) — higher, > 100 µM
- CN1CCN(CC(=O)N2c3ccccc3Sc3cc4ccccc4cc32)CC1 — 3-fold lower, 28.4 µM
- [N-]=[N+]=NC1C2CC3C4CC5CC3[C@H](C2)C(C5)C41 (some centres undefined) — higher, > 100 µM
- S=C(Nc1ccccc1)Nc1ccccc1SC(/C=C/NNC1=NC(c2ccccc2)C(c2ccccc2)=NN1)c1ccccc1 (centres undefined) — higher, > 100 µM
- O=C1CC2(CCC(O)(c3ccccc3)C(C(=O)c3ccccc3)C2)C(=O)c2ccccc2N1 (centres undefined) — higher, > 100 µM
- CCCCCCCCCCn1cccc1/C=C/c1ccc(/C=C/c2cccn2CCCCCCCCCC)cc1 — higher, > 100 µM
- COc1ccc2c(c1)NC(=O)CN2c1nc(NC2CC2)nc2ccccc12 — higher, > 100 µM
- CC1(C)c2ccccc2C(C)(C)C(C(=O)Nc2ccccc2)C1C(=O)O (centres undefined) — higher, > 100 µM
- COc1cc2c(cc1OCc1ccccc1)N=CC1C[C@@H](O)CN1C2=O (some centres undefined) — within 1.5-fold, 72.5 µM
- Cc1ccc(NC(=O)SCCC(=O)O)cc1 — higher, > 100 µM
- COC(=O)C1Cc2c([nH]c3ccccc23)C(c2ccccc2O)N1 (centres undefined) — higher, > 100 µM
- CCOC(=O)/C(SC#N)=C(/N)N1CCCC1 — higher, > 100 µM
- COc1cc(/C=C2\N=C(c3ccccc3)N(c3nc4ccc(Sc5ccccc5)cc4[nH]3)C2=O)ccc1O — higher, > 100 µM
- NC(=O)NN/C=C(/C=Nc1ccccc1)[N+](=O)[O-] — higher, > 100 µM
- CC(C)C[C@H](NC(=O)Cn1ccc(Nc2ccccc2)cc1=O)B(O)O — higher, > 100 µM
- CCCCCCCCCCC(O)CCCCCCC(=O)O (centres undefined) — within 1.5-fold, 56.7 µM
- CC1=C(c2cc(C(=O)Nc3cc(C)ccc3C)nc(N)n2)Sc2ccccc2N1 — higher, > 100 µM
- CC(=O)OC1CCC2(C)C(CCC3C4CC=C(C5(C)OCCO5)C4(C)CCC32)C1 (centres undefined) — higher, > 100 µM
- O=C(O)c1ccccc1Sc1ccccc1[N+](=O)[O-] — higher, > 100 µM
- COc1ccc2nc3cccc([N+](=O)[O-])c3c(NCCNCCO)c2c1 — 110-fold lower, 0.77 µM
- CCC(=O)OC1CCC2C3CCC(=O)OC3C(C)(CCC(=O)O)CC12C (centres undefined) — higher, > 100 µM
- c1ccc(C(NC2CCCCC2NCCNC2CCCCC2NC(c2ccccc2)(c2ccccc2)c2ccccc2)(c2ccccc2)c2ccccc2)cc1 (centres undefined) — higher, > 100 µM
- CN(C)CCCn1c2c(c3ccc(-c4ccn[nH]4)cc3c1=O)C(=O)c1ccccc1-2 — 4-fold lower, 20.8 µM
- CC(CC(=O)O)(CC(=O)O)c1ccccc1 — higher, > 100 µM
- CCOC(=O)C1=C(OC(OCC)C(C)[Se]c2ccccc2)CCC1 (centres undefined) — higher, > 100 µM
- O=C1c2cc3ccccc3cc2C2(c3ccc(Cl)cc3)NCCN12 (centres undefined) — higher, > 100 µM
- CC(C)CSCC1OC(n2cnc3c(N)nccc32)C(O)C1O (centres undefined) — higher, > 100 µM
- Nc1nc(N)c2c(Cl)c(CNc3ccc(C(=O)NC(CC(=O)O)C(=O)O)cc3)ccc2n1 (centres undefined) — higher, > 100 µM
- C#CCOC(=O)C(N)C(C)O (centres undefined) — higher, > 100 µM
- COc1cc(-c2csc(NC(=O)Nc3ccc(Cl)c(C(F)(F)F)c3)n2)cc(OC)c1OC — 17-fold lower, 5.03 µM
- Cc1nc2sccn2c1C(=O)N/N=C1\SCC(=O)N1C — higher, > 100 µM
- O=c1c2ccc(Cl)cc2oc2c(CNc3ccc(S(=O)(=O)Nc4nccs4)cc3)cccc12 — higher, > 100 µM
- C=C1C(=O)O[C@H]2[C@H]1CC/C(COC(=O)/C=C\C(=O)NCc1ccc(Cn3c(=O)sn(CCCI)c3=O)cc1)=C\CC[C@@]1(C)O[C@@H]21 — 39-fold lower, 2.16 µM
- Cn1cc(-c2ccc(-c3cn(C)c4ccc(Cl)cc34)[nH]2)c2cc(Cl)ccc21 — 3.8-fold lower, 22.2 µM
- CC1CC(=O)C2CC(CO)=CCCC2C1(C)CC/C(=C/CO)CO (centres undefined) — higher, > 100 µM
- CN1CCN(C(=S)N(C(=O)c2ccco2)C2CCCCC2)CC1 — higher, > 100 µM
- CCC1(O)CC(OC2CC(N(C)C)C(OC3CC(O)C(OC4CCC(=O)C(C)O4)C(C)O3)C(C)O2)c2c(cc3c(c2O)C(=O)c2c(O)ccc(O)c2C3=O)C1C(=O)OC (centres undefined) — 3200-fold lower, 0.0261 µM
- CCCC(=O)c1c(NOC2OCC(OC(C)=O)C(OC(C)=O)C2OC(C)=O)nc(OC)n(C)c1=O (centres undefined) — higher, > 100 µM

Point of comparison: `COc1cc2c(cc1OCc1ccccc1)N=CC1C[C@@H](O)CN1C2=O` (some centres undefined), GI50 20.4 µM. Against it:
- CCCCCCCC(=O)SCC/C=C/[C@@H]1CC(=O)NCc2cccc(n2)CN(Cc2ccc3ccccc3c2)CC(=O)N[C@@H](C(C)C)C(=O)O1 — 2.3-fold higher, 46.7 µM
- [Cl-].[Nd+3].[O-]/N=C(\c1ccccc1)c1ccccn1.[O-]/N=C(\c1ccccc1)c1ccccn1.[O-]/N=C(\c1ccccc1)c1ccccn1 — 1.6-fold higher, 32.4 µM
- C[n+]1c2ccccc2c(Nc2ccc(N3CCCCC3)cc2)c2[nH]c3ccccc3c21 — 29-fold lower, 0.7 µM
- CC(C)C[C@H](NC(=O)Cn1ccc(Nc2ccccc2)cc1=O)B(O)O — within 1.5-fold, 25.8 µM
- COc1ccc2nc3cccc([N+](=O)[O-])c3c(NCCNCCO)c2c1 — 240-fold lower, 0.0844 µM
- CCC(=O)OC1CCC2C3CCC(=O)OC3C(C)(CCC(=O)O)CC12C (centres undefined) — 2-fold lower, 10.2 µM
- CN(C)CCCn1c2c(c3ccc(-c4ccn[nH]4)cc3c1=O)C(=O)c1ccccc1-2 — 2.9-fold lower, 7.05 µM
- COc1cc(-c2csc(NC(=O)Nc3ccc(Cl)c(C(F)(F)F)c3)n2)cc(OC)c1OC — 13-fold lower, 1.56 µM
- C=C1C(=O)O[C@H]2[C@H]1CC/C(COC(=O)/C=C\C(=O)NCc1ccc(Cn3c(=O)sn(CCCI)c3=O)cc1)=C\CC[C@@]1(C)O[C@@H]21 — 24-fold lower, 0.865 µM
- Cn1cc(-c2ccc(-c3cn(C)c4ccc(Cl)cc34)[nH]2)c2cc(Cl)ccc21 — 4.9-fold lower, 4.14 µM

With `C[C@@]1(C(=O)c2ccccc2)N(c2ccccc2)[C@@]1(C)C(=O)c1ccccc1` the outcome was “inactive”.
